Data: PubChem BioAssay AID662 (National Center for Advancing Translational Sciences (NCATS), 2007)
Hit rate of the full screen: of about 71,000 compounds, about 1,800 (2.5%) were called active. The shares of active, inactive and inconclusive entries below differ from those in the screen. Calls follow the shape of the dose curve; as a rule, active = well fitted activation curve with a large enough effect in the signal ratio, with a control signal flat (not every such curve was filed as active); inconclusive = small, poorly fitted or top-dose-only effect, or effect the other way, or a change in a side signal; inactive = flat fitted curve, though single readings scatter; the % refers to the signal ratio. Potencies of inconclusive entries are doubtful fits and often do not repeat.

Assay: Cell signaling CRE-BLA (Fsk stim); as to activity change, negative = inhibition: % of control where 0% means no effect
Conditions: CHO CRE-bla reporter (cAMP response element driving beta-lactamase), forskolin EC10, beta-lactamase ratio; activity change, negative = inhibition: at 38.2 µM (top of the series) unless noted
Method in brief: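 CRE-bla CHO reporter cells treated with compound titration plus EC10 NKH 477 (water-soluble forskolin), incubated 3 h at 37 °C; CCF4 loading 2 h at room temperature, 460/530 nm emission ratio read, AC50 values derived for positive or negative modulators.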
Potency is read from the fitted curve at half-maximal effect; tags tell the direction and shape of the fitted curve.

Structure (SMILES)	activity change, negative = inhibition	Potency
N#CC1=C(SCC(=O)Nc2cccc3cccnc23)NC(=O)C(C#N)C12CCCCC2 (stereo not drawn)	inconclusive: -21.8%	
COc1cccc(-c2cc(C(=O)N3CC4(C)CC3CC(C)(C)C4)no2)c1 (stereo not drawn)	inconclusive: 6.15%	
NC(=O)NC(=O)CSc1cccc(C(F)(F)F)c1		inconclusive: 3.16 µM [falling, single point]
Cn1cccc1Cc1nnc(SCC(=O)N2CCCC2)n1CCc1ccccc1	inactive: -4.7%	
COC(=O)[C@H](CCSC)NC(=O)Nc1ccc(C)c(C)c1	inactive: 7.93%	
O=C(O)C1CCN(S(=O)(=O)N2CCOCC2)CC1	inconclusive: 8.5%	
COc1ccc2nc(Nc3nc(C)c(C(C)=O)s3)sc2c1		inconclusive: 12.6 µM [rising, partial curve]
CS(=O)(=O)c1nc(-c2ccco2)cc(C(F)(F)F)n1	inconclusive: -3.26%	
O=C(NC1CCCC1)C(c1ccncc1)N(Cc1cccs1)C(=O)c1csnn1 (stereo not drawn)	inactive: -11%	
O=C(CC(c1ccccc1)c1ccccc1)NCCO		inconclusive: 5.01 µM [rising, single point]
CC(C)Cc1nc2oc3c(=O)[nH]cnc3c2c2c1CCC2	inconclusive: -4.68%	
CCOC(=O)C1CCN(CC(=O)Nc2c(C(=O)OC)[nH]c3cccc(C)c23)CC1	inactive: -4.89%	
CCOC(=O)c1cnc(-n2nc(C)cc2C)nc1NCCc1ccccc1		inconclusive: 3.16 µM [rising, full curve]
Cc1ccc(C2N(c3nccs3)C(=O)C3CCCN32)cc1 (stereo not drawn)	inactive: -4.25%	
O=C(Nc1ccc2c(c1)OCO2)c1c(Cl)nc2sccn12	inconclusive: 25.9%	
CC1(C)C(c2ccccc2)=NC(c2ccc(F)cc2)N1O (stereo not drawn)	inconclusive: 23.9%	
COC(=O)c1ccc(C(=O)OC)c(NS(=O)(=O)c2ccc(NC(C)=O)cc2)c1		inconclusive: 3.98 µM [rising, single point]
Cc1nn(-c2nc3ccccc3[nH]2)c(N)c1-c1ccccc1	inconclusive: -16.8%	
O=C(O)c1cc2ccc3ccccc3c2[nH]1	inactive: -3.66%	
CCc1cc(=O)oc2cc(C)cc(OCc3nn[nH]n3)c12	inconclusive: -4.76%	
CC(=O)NC(=O)NC1OC(=O)C(Cl)=C1Cl (stereo not drawn)	inconclusive: -20.9%	
Nc1nnnn1/N=C/c1ccccc1OCc1ccc(Cl)cc1Cl	inconclusive: -2.48%	

Structure (SMILES)	activity change, negative = inhibition	Potency
c1cc(Nc2ncnc3sccc23)cc(-c2nnc3n2CCCCC3)c1		inconclusive: 5.01 µM [rising, partial curve]
O=C(CN1CCCN(S(=O)(=O)c2ccc(F)cc2)CC1)Nc1ccccc1Br	inconclusive: 5.6%	
c1ccc(-c2nn3c(C4COc5ccccc5O4)nnc3s2)cc1 (stereo not drawn)	inactive: 10.6%	
CCc1nc(C)cn1S(=O)(=O)c1cc(Br)c(C)cc1OC		inconclusive: 12.6 µM [rising, partial curve]
CC(=O)Nc1ccc(S(=O)(=O)N2CCN(c3cc(C)ccc3C)CC2)cc1	inconclusive: -20.5%	
Cc1ccc(NC(=O)c2nnn(CC(=O)Nc3ccccc3)c2N)cc1C	inconclusive: 9.68%	
COc1ccc(NC(=O)CNc2cccc(C#N)c2)cc1Cl		inconclusive: 5.01 µM [falling, single point]
O=C(Nc1cccc(F)c1)N1CC[C@@]2(CCCN(C(=O)c3cc(C(F)(F)F)cc(C(F)(F)F)c3)C2)C1	inactive: -5.71%	
c1ccc(CSc2nnc(-c3ccco3)n2Cc2ccco2)cc1	inactive: 27%	
CCCCC(=O)N(C)C	inactive: -5.32%	
CC(C)c1nnc(NC(=O)Cn2nc(-c3ccc4c(c3)OCCO4)ccc2=O)s1	inactive: 2.24%	
COc1ccc2c(c1)[nH]c1c(=O)n(CCc3cnc[nH]3)cnc12	inconclusive: -20.7%	
O=C(Nc1cccc(F)c1)N1CC[C@@]2(CCCN(C(=O)c3ccncc3)C2)C1	inactive: 3.23%	
C(=C\c1ccccc1)/CSc1nnc(-c2cnccn2)n1Cc1ccco1		inconclusive: 10 µM [rising, partial curve, poor fit]
COc1ccc(CCNC(=O)CN2CCN(c3cccc(Cl)c3)CC2)cc1OC	inactive: -9.12%	
CC(C)N(C(=O)CSc1nc2c([nH]1)c(=O)n(C)c(=O)n2C)c1ccccc1	inconclusive: 16.8%	
Oc1ccc(C=Nc2ccc(N3CCOCC3)cc2)c(O)c1	inconclusive: -15.4%	
COC(=O)c1ccc(CSc2nc3c(cnn3-c3ccccc3)c(=O)[nH]2)o1		active: 3.98 µM
COC(=O)c1c(NC(=O)COC(=O)Cn2cnc3ccccc32)sc(C)c1C		inconclusive: 15.8 µM [rising, single point]
Cc1[nH]n(-c2ccccc2)c(=O)c1S(=O)(=O)c1ccccc1	inconclusive: -22%	
N#CC(C(=O)Nc1ccc(Cl)cc1)=C1Nc2ccccc2N1		inconclusive: 2.51 µM [rising, partial curve]
